# Reference: PubChem BioAssay AID504333 (National Center for Advancing Translational Sciences (NCATS), 2011)
# In all, about 360,000 compounds went through this assay and about 16,000 (4.4%) were called active. The inconclusive results got no clear call from the source; some entries with a clear call stand among them for comparison. Calls come from the whole dose curve; as a rule, active = well fitted inhibition curve with a large enough effect; inconclusive = small, poorly fitted or top-dose-only effect; inactive = no such curve, though single readings can be large or run the other way. Potencies of inconclusive entries are doubtful fits and often do not repeat. Where a structure was tested more than once in an assay, its records may differ in their call.
# Target: Bromodomain adjacent to zinc finger domain protein 2B (Homo sapiens) (UniProt Q9UIF8)
# Test: qHTS Assay for Inhibitors of BAZ2B; note: nearly all actives have a fitted effect of over 60% in size
# Conditions: AlphaScreen BAZ2B-H3K14Ac peptide displacement; series mostly up to 114 µM
# In short: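 Inhibition is scored as reduced AlphaScreen emission. The BAZ2B/b-H3(5-23)K14Ac complex (50 nM each) in PBS pH 7.4, 0.01% Tween-20 meets compound (up to 110 uM) for 30 min at RT before bead addition.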
# Potency is the fitted concentration of half-maximal effect; tags give direction and shape of the fitted curve.
# Sequence of UniProt Q9UIF8 (Q9UIF8 whole entry, looked up, the tested form may be a part): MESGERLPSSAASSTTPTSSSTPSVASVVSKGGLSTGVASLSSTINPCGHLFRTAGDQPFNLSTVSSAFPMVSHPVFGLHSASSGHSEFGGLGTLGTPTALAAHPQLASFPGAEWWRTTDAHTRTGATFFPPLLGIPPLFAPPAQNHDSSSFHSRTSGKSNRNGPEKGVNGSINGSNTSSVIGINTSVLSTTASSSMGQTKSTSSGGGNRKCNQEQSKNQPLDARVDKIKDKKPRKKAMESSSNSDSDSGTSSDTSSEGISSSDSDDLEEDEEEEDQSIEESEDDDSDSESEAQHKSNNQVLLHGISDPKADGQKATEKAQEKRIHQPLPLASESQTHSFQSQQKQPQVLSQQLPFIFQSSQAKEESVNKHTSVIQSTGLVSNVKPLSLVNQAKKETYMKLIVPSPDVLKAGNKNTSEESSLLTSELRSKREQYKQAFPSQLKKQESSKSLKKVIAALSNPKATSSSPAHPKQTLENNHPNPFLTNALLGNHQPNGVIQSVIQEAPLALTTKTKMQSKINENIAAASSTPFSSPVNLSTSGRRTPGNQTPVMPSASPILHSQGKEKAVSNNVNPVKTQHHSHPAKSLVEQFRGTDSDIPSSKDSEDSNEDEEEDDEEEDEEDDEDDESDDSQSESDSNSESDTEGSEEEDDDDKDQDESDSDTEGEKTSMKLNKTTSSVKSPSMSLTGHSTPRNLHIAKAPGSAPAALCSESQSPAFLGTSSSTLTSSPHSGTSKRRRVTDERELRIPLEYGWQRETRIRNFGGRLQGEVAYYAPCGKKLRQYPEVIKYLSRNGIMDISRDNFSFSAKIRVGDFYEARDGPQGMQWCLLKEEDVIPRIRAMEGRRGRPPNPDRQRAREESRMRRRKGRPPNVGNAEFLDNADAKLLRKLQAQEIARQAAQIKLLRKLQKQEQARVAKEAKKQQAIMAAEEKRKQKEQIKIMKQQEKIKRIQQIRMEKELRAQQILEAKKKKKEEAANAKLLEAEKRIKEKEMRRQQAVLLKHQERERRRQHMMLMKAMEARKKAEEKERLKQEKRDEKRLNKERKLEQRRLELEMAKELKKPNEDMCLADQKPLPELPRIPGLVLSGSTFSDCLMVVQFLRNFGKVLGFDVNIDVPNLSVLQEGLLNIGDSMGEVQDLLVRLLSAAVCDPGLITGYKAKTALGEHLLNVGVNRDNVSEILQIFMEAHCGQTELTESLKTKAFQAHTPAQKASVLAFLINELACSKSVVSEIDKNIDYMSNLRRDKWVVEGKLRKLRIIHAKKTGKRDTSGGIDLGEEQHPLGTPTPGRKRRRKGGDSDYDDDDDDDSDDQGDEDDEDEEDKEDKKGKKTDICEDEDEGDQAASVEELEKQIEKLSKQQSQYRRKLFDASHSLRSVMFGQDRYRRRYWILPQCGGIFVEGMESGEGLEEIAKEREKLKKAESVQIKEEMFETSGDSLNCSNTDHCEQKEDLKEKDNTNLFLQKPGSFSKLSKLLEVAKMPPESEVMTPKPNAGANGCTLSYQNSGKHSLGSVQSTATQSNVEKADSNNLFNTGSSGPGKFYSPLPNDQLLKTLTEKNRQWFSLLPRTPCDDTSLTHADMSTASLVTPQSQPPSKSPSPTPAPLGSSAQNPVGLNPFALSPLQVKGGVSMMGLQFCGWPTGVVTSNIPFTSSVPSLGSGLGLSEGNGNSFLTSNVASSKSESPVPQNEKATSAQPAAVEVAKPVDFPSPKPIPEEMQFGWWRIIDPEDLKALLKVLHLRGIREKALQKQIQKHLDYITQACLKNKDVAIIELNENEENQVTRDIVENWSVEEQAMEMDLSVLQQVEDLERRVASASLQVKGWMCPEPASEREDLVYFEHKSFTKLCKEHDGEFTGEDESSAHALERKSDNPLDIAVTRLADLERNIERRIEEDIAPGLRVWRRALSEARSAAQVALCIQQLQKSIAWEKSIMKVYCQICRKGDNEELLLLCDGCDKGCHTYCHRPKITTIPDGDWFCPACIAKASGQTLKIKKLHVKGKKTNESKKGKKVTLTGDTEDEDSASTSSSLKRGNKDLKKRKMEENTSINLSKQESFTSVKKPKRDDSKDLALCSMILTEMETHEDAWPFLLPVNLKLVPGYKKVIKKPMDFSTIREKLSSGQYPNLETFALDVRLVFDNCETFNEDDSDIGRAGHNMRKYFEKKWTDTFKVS
row,Structure (SMILES),Potency
1,CCC(=O)Nc1ccc(Cl)c(NC(=S)NC(=O)COc2ccccc2)c1,inactive
2,c1ccc2[nH]c(NN=C3CCCCCC3)nc2c1,"inconclusive: 35.5 µM [inhibitor, partial curve]"
3,COc1ccccc1CNC(=O)c1ccccc1C(=O)NC(CC(C)C)C(=O)NCc1ccccc1OC (stereo not drawn),"inconclusive: 70.8 µM [inhibitor, partial curve]"
4,COc1ccc(NCC(=O)N/N=C/c2cc([N+](=O)[O-])ccc2N2CCCC2)cc1,"inconclusive: 12.6 µM [inhibitor, full curve, poor fit]"
5,C=CCO/N=C/C1C(=O)CC(C)(C)CC1=O,"inconclusive: 79.4 µM [inhibitor, single point]"
6,COc1ccccc1C(=O)N/N=C(\C)CC(=O)Nc1ccccc1NC(C)=O,"inconclusive: 89.1 µM [inhibitor, single point]"
7,Cc1c(CN(C)Cc2cn(C)nc2-c2ccccc2F)[nH]c2ccccc12,"inconclusive: 50.1 µM [inhibitor, partial curve]"
8,CC1CCN(CCOc2cc(Cl)ccc2Cl)CC1,active: 50.1 µM
9,NS(=O)(=O)c1cccc(NC(=O)c2ccc3nc[nH]c3c2)c1,"inconclusive: 79.4 µM [inhibitor, single point]"
10,Cc1ccc(-c2ccc(C(=O)NCc3ccc(Cl)cc3)o2)c2ccccc12,"inconclusive: 28.2 µM [inhibitor, partial curve]"
11,O=C(O)c1ccc2c(c1)-c1nc3ccccc3n1C2=O,"inconclusive: 35.5 µM [inhibitor, single point]"
12,S=c1[nH]c(-c2ccccc2)cn1/N=C/c1cccs1,inactive
13,Cc1ccc(C(=O)N/N=C\c2cc(Br)c(Br)o2)cn1,active: 50.1 µM
14,CCC(C)(C)NC(=O)Cn1c(-c2ccccc2)cc(C(C)=O)c1C,"inconclusive: 50.1 µM [inhibitor, partial curve]"
15,CCNC(=O)COC(=O)c1cccc(Br)c1,inactive
16,CSc1ccc(C2C(C#N)=C(N)Oc3c2ccc(=O)c2c(C)oc(C)c32)cc1 (stereo not drawn),"inconclusive: 79.4 µM [inhibitor, single point]"
17,O=C(Cn1ncc2c3ccccc3n(Cc3cccc(Cl)c3)c2c1=O)NCC1CCCO1 (stereo not drawn),"inconclusive: 89.1 µM [inhibitor, single point]"
18,CN(C)/C=C1/Nc2ccccc2C1=O,"inconclusive: 56.2 µM [inhibitor, partial curve, poor fit]"
19,CC1=C(c2ccc(C(C)C)cc2)S(=O)(=O)NC1=NCc1ccc(Cl)cc1,"inconclusive: 89.1 µM [inhibitor, single point]"
20,CN(C)C(=N)c1n[nH]nc1SCc1ccccc1,active: 79.4 µM
21,Cc1cc(C(=O)COC(=O)C2COc3ccccc3O2)c(C)n1CC1CCCO1 (stereo not drawn),"inconclusive: 89.1 µM [inhibitor, single point]"
22,CSCc1c(C(=O)N2CCCc3ccccc32)oc2ccccc12,"inconclusive: 70.8 µM [inhibitor, single point]"
23,Cc1nn(CC(O)c2ccccc2)c(C)c1Br (stereo not drawn),"inconclusive: 89.1 µM [inhibitor, single point]"
24,Cc1cc(C(=O)CCl)c(C)n1CCc1ccccc1,inactive
25,COc1ccc(OCC(=O)Nc2ccc3c(c2)nc(CCN2CCCC2)n3C)cc1,inactive

row,Structure (SMILES),Potency
1,Cc1ccc(-c2c(C#N)c(N)nc3c2CCCCCC3)o1,inactive
2,Cc1snnc1C(=O)NC(=S)Nc1ccccc1,inactive
3,C/C(=N\N=C1\NC(=O)CC(C(=O)O)S1)c1ccc(F)cc1 (stereo not drawn),inactive
4,CC(C)C(NC(=O)c1c(F)cccc1F)C(=O)NCc1ccc(S(=O)(=O)N2CCOCC2)cc1 (stereo not drawn),inactive
5,O=C(Nc1ccc(S(=O)(=O)NCc2ccccc2)cc1)C1CCCCC1,inactive
6,Cc1ccc(C)c(NC(=O)CCc2ccc(C)o2)c1,"inconclusive: 89.1 µM [inhibitor, single point]"
7,COc1ccc(OC)c(NC(=O)CC2SC(=Nc3ccccc3)N(CCc3ccccn3)C2=O)c1 (stereo not drawn),"inconclusive: 70.8 µM [inhibitor, single point]"
8,Clc1ccc(CN2CCCCCC2)cc1Cl,"inconclusive: 79.4 µM [inhibitor, single point]"
9,COc1cccc(C(=O)N(Cc2ccccc2)Cc2cc3cc4c(cc3[nH]c2=O)OCCO4)c1,"inconclusive: 79.4 µM [inhibitor, single point]"
10,Cc1ccc2c(c1)/C(=C/c1ccccc1)C(=O)N2,"inconclusive: 39.8 µM [inhibitor, partial curve]"
11,O=C(CCc1c[nH]c2ccccc12)NCCc1ccccc1,inactive
12,Cc1cc(NS(=O)(=O)c2cn(C)nc2C)no1,inactive
13,COc1ccc(NC(=O)CN2CCN(c3ccc(Cl)cc3)CC2)c(OC)c1,"inconclusive: 70.8 µM [inhibitor, single point]"
14,Cc1cc(C)c(NC(=O)Cn2c(=O)n(CC(=O)NCCc3ccccc3)c(=O)c3ccccc32)c(C)c1,"inconclusive: 89.1 µM [inhibitor, single point]"
15,O=C(NC1CCCCCC1)c1ccc(CS(=O)c2cccc(Cl)c2)o1 (stereo not drawn),"inconclusive: 89.1 µM [inhibitor, single point]"
16,O=C(NCc1ccccc1Cl)c1ccc2c(c1)N(Cc1ccccc1)CCS2,inactive
17,Cc1cc(C)c(S(=O)(=O)NCC(=O)O)cc1C,"inconclusive: 89.1 µM [inhibitor, single point]"
18,COCCCNC(=S)N1CCC(C(=O)c2ccc3c(c2)OCCO3)CC1,"inconclusive: 89.1 µM [inhibitor, single point]"
19,Cc1ccc2c(c1)c(C)c(C)n2CC(O)Cn1nnc2ccccc21 (stereo not drawn),"inconclusive: 44.7 µM [inhibitor, partial curve]"
20,Cc1nc(-c2ccc(C(=O)Nc3cccc(Br)c3)cc2)cs1,"inconclusive: 89.1 µM [inhibitor, single point]"
21,COc1cc(C(=O)O)nc2ccccc12,active: 39.8 µM
22,CC(O)CN(Cc1ccc(Cl)cc1)CC(C)O (stereo not drawn),active: 56.2 µM
23,Cc1ccc(CSCCNC(=O)c2ccc(Cl)c(S(=O)(=O)N3CCOCC3)c2)cc1,"inconclusive: 89.1 µM [inhibitor, single point]"
24,Cc1sc2c3ccsc3ccc2[n+]1C,active: 100 µM
25,COc1ccc2c(c1)-c1nc(/N=C/c3ccc(O)c(OC)c3)sc1CC2,"inconclusive: 50.1 µM [inhibitor, partial curve]"

row,Structure (SMILES),Potency
1,Cc1cc(C)n2cc(CSCC(=O)O)nc2n1,"inconclusive: 89.1 µM [inhibitor, single point]"
2,CCOc1ccc(S(=O)(=O)N2CCC(C(=O)NC3CC3)CC2)cc1Cl,inactive
3,O=C(NCC1CC1)c1onc(CSc2ccncc2)c1C(=O)NCC1CC1,"inconclusive: 39.8 µM [inhibitor, single point]"
4,CC(=O)[C@@H]1[C@@H](C(=O)c2ccccc2)[C@]2(C(=O)Nc3ccccc32)[C@H]2C=Cc3cc(F)ccc3N12,"inconclusive: 79.4 µM [inhibitor, single point]"
5,Cc1ccc(/C=N/NC(=O)CSc2nc3ccccc3[nH]2)o1,"inconclusive: 79.4 µM [inhibitor, single point]"
6,NC(=NCc1ccco1)NC(=O)c1ccccc1,"inconclusive: 56.2 µM [inhibitor, partial curve]"
7,Cc1cc(C(=O)COC(=O)Cc2ccc(Br)cc2)c(C)n1C,active: 50.1 µM
8,CCC(C(=O)OC)n1nnc2sc(-c3ccccc3)cc2c1=O (stereo not drawn),inactive
9,O=C(CSc1nc(-c2ccccc2Cl)ns1)c1ccc(Cl)cc1,inactive
10,CN(C)C(CNc1ccc(S(C)(=O)=O)cc1[N+](=O)[O-])c1ccccc1 (stereo not drawn),"inconclusive: 89.1 µM [inhibitor, single point]"
11,N#C/C(=C\C=C\c1ccccc1[N+](=O)[O-])C(=O)NC1CCCCC1,"inconclusive: 14.1 µM [inhibitor, full curve, poor fit]"
12,O=C(NCc1ccc(Cl)cc1)C(=O)NCC1OCCCN1S(=O)(=O)c1cccs1 (stereo not drawn),inactive
13,Cc1ccc(S(=O)(=O)NNC(=S)NC(=O)c2ccc([N+](=O)[O-])cc2)cc1,"inconclusive: 25.1 µM [inhibitor, full curve, poor fit]"
14,O=C1C(=O)N(C2CCS(=O)(=O)C2)C(c2cccc(O)c2)/C1=C(/O)c1ccc(Cl)cc1 (stereo not drawn),active: 79.4 µM
15,Cc1cc(C)cc(NC(=O)C(=O)NCC(c2cccnc2)N2CCc3ccccc32)c1 (stereo not drawn),inactive
16,O=C(O)CS(=O)(=O)CC(=O)O,active: 79.4 µM
17,C=CCn1c(COc2cccc(C)c2C)nnc1SCC(=O)N1CCN(c2ccccc2)CC1,"inconclusive: 35.5 µM [inhibitor, full curve, poor fit]"
18,Cc1ccc(S(=O)(=O)CCC(=O)OCC(=O)NCCc2ccc(S(N)(=O)=O)cc2)cc1,"inconclusive: 79.4 µM [inhibitor, single point]"
19,OCCN(CCO)c1ccc(C(c2ccc(Cl)cc2)c2ccc(N(CCO)CCO)cc2Cl)c(Cl)c1,"inconclusive: 79.4 µM [inhibitor, partial curve]"
20,O=C(N/N=C/c1cc(Br)cc(Br)c1O)c1ccncc1,active: 8.91 µM
21,O=C(N=Nc1c(O)[nH]c2ccc([N+](=O)[O-])cc12)c1ccccc1Cl,active: 56.2 µM
22,CC(Oc1ccccc1)C(=O)Nc1nnc(S(=O)(=O)N2CCCCCC2)s1 (stereo not drawn),active: 1.78 µM
23,COc1ccc(C2=NN3C(C2)c2ccccc2OC3c2cccs2)cc1 (stereo not drawn),"inconclusive: 89.1 µM [inhibitor, single point]"
